Measured values published in PubChem BioAssay AID488969 (Vanderbilt High Throughput Screening Facility, 2010).
The full ranking holds about 110,000 compounds; the median of “z-score” is about -0.1, and the highest 2% start at about 2. The list shows a part of the results.

biological target: Metabotropic glutamate receptor 8 (Rattus norvegicus) (UniProt P70579); assay: mGluR8 Gi/Go-coupled signaling modulation – cell-based, rat, thallium flux, HTS, primary screen (AID 488969); conditions: HEK293 rat mGluR8, GIRK (G protein-gated inwardly rectifying potassium channel) thallium flux, FluoZin2; at 10 µM; stronger effect = higher value; submaximal glutamate (EC20) added with thallium
UniProt P70579, sequence (P70579 whole entry, looked up): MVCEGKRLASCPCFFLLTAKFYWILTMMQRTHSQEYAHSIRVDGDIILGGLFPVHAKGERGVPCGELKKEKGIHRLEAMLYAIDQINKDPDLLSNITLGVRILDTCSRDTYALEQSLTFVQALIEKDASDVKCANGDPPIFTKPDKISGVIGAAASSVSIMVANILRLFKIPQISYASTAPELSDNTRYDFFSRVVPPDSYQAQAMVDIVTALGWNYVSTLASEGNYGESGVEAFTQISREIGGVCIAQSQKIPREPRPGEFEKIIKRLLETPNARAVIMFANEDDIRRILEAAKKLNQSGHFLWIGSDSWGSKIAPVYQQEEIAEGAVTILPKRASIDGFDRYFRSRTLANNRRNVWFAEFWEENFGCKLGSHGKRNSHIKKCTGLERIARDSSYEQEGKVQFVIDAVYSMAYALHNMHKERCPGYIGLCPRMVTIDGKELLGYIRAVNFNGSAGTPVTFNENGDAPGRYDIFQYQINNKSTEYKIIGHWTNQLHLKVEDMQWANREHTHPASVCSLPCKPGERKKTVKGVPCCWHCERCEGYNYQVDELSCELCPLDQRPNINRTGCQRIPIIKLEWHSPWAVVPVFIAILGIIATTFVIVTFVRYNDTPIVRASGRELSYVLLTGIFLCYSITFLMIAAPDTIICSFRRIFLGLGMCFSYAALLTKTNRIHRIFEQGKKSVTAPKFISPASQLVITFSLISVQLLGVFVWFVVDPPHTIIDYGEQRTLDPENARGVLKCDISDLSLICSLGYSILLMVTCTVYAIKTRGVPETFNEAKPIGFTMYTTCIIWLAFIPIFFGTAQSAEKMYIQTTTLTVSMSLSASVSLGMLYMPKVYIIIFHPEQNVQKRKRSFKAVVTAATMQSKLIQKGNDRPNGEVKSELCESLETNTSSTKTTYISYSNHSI

SMILES	z-score
Cc1ccc(S(=O)(=O)N2CCN(C(=O)N3CCOCC3)C2C(C)C)cc1 (stereo not given)	-0.192
COc1ccc(Nc2ccc3nnc(-c4ccc(Br)cc4)n3n2)cc1	-0.0552
COc1ccc(C(=O)Nc2ccccc2C(=O)N/N=C/c2ccccc2OC)cc1	-0.231
COc1ccc(/C=N/NC(=O)c2ccc(CSc3nc(C)cc(C)n3)cc2)cc1O	-0.825
O=c1cc(N2CCN(c3ccccc3)CC2)[nH]c(=O)n1C1CCCCC1	0.0881
COC(=O)c1ccccc1NC(=O)Cc1nc(-c2ccccc2)sc1-c1ccc(C)cc1	-0.0317
Cc1ccc(OCC(=O)N2CCN(C3=NS(=O)(=O)c4ccccc43)CC2)cc1	-0.0914
O=C1c2ccccc2C(=O)N1OCc1ccc(Cl)cc1	-0.113
COc1ccc(S(=O)(=O)N(C)CC(=O)N2CCN(c3ccc(F)cc3)CC2)cc1OC	-0.0302
CN(C)C(=O)CSc1nc(SCC(=O)N(C)C)n(-c2ccccc2)n1	1.25
S=c1[nH]nc(C2CCCCC2)n1/N=C/C(Cl)=C\c1ccccc1	-0.0746
CCc1ccc(C2NC(=S)NC3=C2C(=O)CCC3)cc1 (stereo not given)	-0.233
CC1=CN2C(=N)/C(=C/c3ccc(Sc4ccc(Cl)cc4)o3)C(=O)N=C2S1	1.36
CCOC(=O)CNC(=O)c1ccccc1Br	0.112
CN(C)c1ccc(Nc2nc(-c3cccnc3)cs2)cc1	-1.73
C=CCn1c(SCC(=O)NCCCC)nc2scc(-c3ccco3)c2c1=O	-0.632
CCc1c(C)sc(NC(=O)c2ccccc2[N+](=O)[O-])c1C(N)=O	-0.0876
CCCOc1ccccc1C(=O)NC(CO)C(=O)O (stereo not given)	1.28
O=C(NCC1CCCO1)NC1CCCCC1 (stereo not given)	0.345
N#C/C(=C(/O)COC(=O)CSc1ccc(Cl)cc1)c1nc2ccccc2[nH]1	-0.166
CCC(=O)c1ccccc1OCCSc1nc(C)cc(=O)[nH]1	-0.441
O=C(N/N=C/c1ccccc1)c1ccc(N2CCOCC2)c([N+](=O)[O-])c1	-0.296

SMILES	z-score
CCC(=O)Nc1ccc(NC(=O)CSc2nnnn2CC)cc1C	-0.425
CCn1cc(Br)c(C(=O)Nc2ccc(Cl)cc2Cl)n1	0.126
Cc1nc2nc(-c3ccco3)[nH]n2c(=O)c1C	-1.89
O=C(COC(=O)c1ccccc1)c1ccc(Br)cc1	-0.0783
COC(=O)COc1ccc(S(=O)(=O)Nc2ccccc2C(=O)OC)cc1	-0.179
CC1=NN(C(=O)COc2ccccc2)C(O)(c2ccccc2)C1 (stereo not given)	-0.0689
COc1ccc(C2CC(C(F)(F)F)n3nc(C(=O)Nc4ccc5c(c4)OCO5)cc3N2)cc1 (stereo not given)	-0.282
CCOc1ccc2[nH]c(=O)c(CN(CCO)Cc3nnnn3CCc3ccccc3)cc2c1	0.394
COCCCNS(=O)(=O)c1ccc(OC)c(Cl)c1Cl	0.284
O=C(Nc1ccccc1N1CCOCC1)c1ccccc1[N+](=O)[O-]	-0.093
C=CCNC(=O)C(=O)NN=C1CCN(C)CC1	-0.129
Cc1ccc(-n2nnnc2SCC(N)=O)c(C)c1	0.114
CCCN(CCO)Cc1ccc(Br)cc1	1.27
COc1cc(/C=N/Nc2cccc(C)c2)ccc1OC(=O)c1cccs1	0.189
CCOc1ncccc1C(=O)Oc1ccc2c(c1)OCO2	0.582
CC(=O)C1=C(c2ccccc2)OC(N)=C(C#N)C1c1ccccc1C (stereo not given)	-0.715
NC(=O)c1ccc(C(F)(F)F)n(Cc2ccc(Cl)cc2)c1=O	-0.45
O=C(O)CCCCCN1C(=O)/C(=C\c2ccncc2)SC1=S	0.0802
CC(C)(C)n1ncc2c(=O)n(Cc3ccc(Cl)cc3Cl)cnc21	-1.25
O=C(NCc1ccco1)c1cccc(-c2nnc(-c3ccccc3)o2)c1	-1.35
Cc1cc(C)c(NC(=O)CC(C)(C)C)c(Cl)c1	0.0682
CCOC(=O)N1CCC(N2C(=O)c3ccccc3C2Nc2cc(Cl)c(OC)cc2OC)CC1 (stereo not given)	-0.515

SMILES	z-score
CN(C)S(=O)(=O)c1cccc(NC(=O)c2cc(-c3cccs3)nn2-c2cccc(Cl)c2)c1	-0.214
O=C(c1ccc(Cn2cc(Cl)cn2)cc1)N1CCN(c2ccccc2)CC1	-0.125
Cc1c(Cl)c([N+](=O)[O-])nn1CCCC(=O)Nc1ccc(Cl)cc1Cl	-0.161
O=C(NNc1c(Cl)cc(Cl)cc1Cl)c1cccc([N+](=O)[O-])c1	-0.297
CCOC(=O)Nc1nc(C)c(C(=O)N(C)C)s1	-0.0609
COC(=O)COc1ccc(S(=O)(=O)Nc2ccc(NC(C)=O)cc2)cc1C	-0.154
CCN1CCN(C(c2cccs2)C(C)NC(=O)NC2CCCCC2)CC1 (stereo not given)	0.127
C=CCn1c(Cc2ccc(OCC)cc2)nnc1SCC(N)=O	0.0956
Cc1ccc(C(O)CN2C3=NCCCN3c3ccccc32)cc1 (stereo not given)	1.16
CCCCNC(=O)N1CCOCCOCCN(C(=O)NCCCC)CCOCCOCC1	0.0635
CC(C)Nc1nc2n(c(=O)n1)CCN2C(C)C	-0.112
O=C(OCCN1CCCC1=O)c1cc(F)c(F)c(F)c1F	-0.0114
COc1ccc(/C(C#N)=C/c2c(-c3ccc(Cl)cc3)nc3c(C)cccn23)cc1	0.106
CN(c1nc2ccccc2n2c(-c3ccco3)nnc12)S(=O)(=O)c1ccccc1	-0.388
COc1ccc(S(=O)(=O)Nc2ccc(C)cc2)cc1N(C)S(=O)(=O)c1ccc(Cl)cc1	-0.167
CCOC(=O)C(CC)Sc1ncnc2nc[nH]c12 (stereo not given)	-0.244
Cn1c(Cn2nnc3ccccc32)nnc1SCC(=O)N1c2ccccc2Sc2ccccc21	-0.24
CN(CC(=O)Nn1cnnc1)S(=O)(=O)c1ccccc1	-0.262
CCOC(=O)C1CCCN(C(=O)c2cc(Nc3ccc(OC)cc3)nc3ccccc23)C1 (stereo not given)	0.495
C=CCCC(=O)Nc1nc(C)c(-c2csc(Nc3ccccc3OC)n2)s1	-0.281
O=S(=O)(c1cccc2cccnc12)N1CCOCC1	-0.368
O=C(Nc1ccc2c(c1)OCO2)c1cc2nc(C3CC3)cc(C(F)(F)F)n2n1	-0.167

SMILES	z-score
O=C1CC(C(=O)Nc2ncccn2)C(c2ccccc2)O1 (stereo not given)	0.0585
O=C(CNC1C(=O)Nc2ccccc21)Sc1ccccc1 (stereo not given)	1.16
Cc1ccccc1CN(c1ccc(C(=O)Nc2ccccc2C(=O)N2CCCC2)cc1)S(C)(=O)=O	-0.451
CC(C)C(NC(=O)c1ccccc1)C(=O)NC1=NCCS1 (stereo not given)	-1.03
CCS(=O)(=O)CCSc1nc2ccccc2s1	1.26
CCCNC(=S)Nc1cccc(C(F)(F)F)c1	-0.0262
CCCn1c(N)[n+](CC(=O)c2ccco2)c2ccccc21	-0.369
O=C(CSc1nnc(Cc2cc(=O)[nH]c(=O)[nH]2)n1-c1ccc(F)cc1)N1CCCCC1	0.143
CN(Cc1ccccc1)S(=O)(=O)c1ccc2c(c1)NC(=O)CC(=O)N2	0.0876
CCC(=O)Nc1cccc(NC(=O)c2ccccc2Br)c1	0.164
Cc1nc2cc(NC(=O)N3CC4(C)CC3CC(C)(C)C4)ccc2n1C (stereo not given)	-0.00901
COc1ccc(C(=O)CN2CCN(S(=O)(=O)c3cccc([N+](=O)[O-])c3)CC2)cc1OC	0.997
Clc1ccc(-c2nc3ncccn3c2Nc2ccc3c(c2)OCO3)cc1	-0.0933
COc1ccc(/C=C/C(=O)Nc2ccccc2C(F)(F)F)cc1OC	-0.0897
CCOc1cc(NC(=S)Nc2cccc(OC)c2)c(OCC)cc1NC(=O)C1CC1	-0.0916
CCc1ccccc1NC(=O)c1ccc(CN2CCC(Cc3ccccc3)CC2)cc1	0.341
O=C(NCCO)c1scc2c1OCCO2	0.107
CCNc1ccccc(-c2ccc3ccccc3n2)c1=O	-0.172
CCn1c(=O)n(CC)c2cc(S(=O)(=O)Nc3c(C)cccc3C)ccc21	1.36
COc1ccc(CN=C2NC(=O)CC(C(=O)Nc3ccc(Cl)cc3)S2)cc1 (stereo not given)	-0.983
CCOC(=O)c1[nH]c2ccccc2c1N=C(C)N(CC)CC	-0.0918
Cc1cc(N(CC(=O)NC(C)C)S(C)(=O)=O)ccc1Br	0.0847

SMILES	z-score
COc1ccc(C(=O)Nc2nc3ccccc3[nH]2)cc1OC	-0.287
O=C1N(CN2C(=O)C3(OCCO3)c3ccccc32)c2ccccc2C12OCCO2	0.0746
Cc1ccccc1N(CC(=O)NC1CCCC1)C(=O)C1(C)CC(=O)N=C2C=CC=CN21 (stereo not given)	-0.259
CCOc1ccccc1NC(=O)CSc1nc(N)c(C#N)cc1C#N	0.579
COc1ccc(C(=O)Cn2nnc(-c3ccccc3NC(=O)c3ccco3)n2)cc1	-0.311
CCOc1ccccc1NC(=S)N(Cc1cc2ccc(C)cc2[nH]c1=O)CC1CCCN1CC (stereo not given)	-0.724
CCCC(=O)Nc1nc(C)c(-c2csc(Nc3ccccc3C)n2)s1	-0.0857
Cc1cccc(-n2c(N)cc(=O)nc2SCC(=O)Nc2nnc(C)s2)c1	0.523
Cc1nc(SC(C(=O)c2ccccc2)c2ccccc2)n[nH]1 (stereo not given)	-0.522
CCOc1cc2[nH]c(=O)n(CCCCC(=O)N3CCCCCC3)c(=O)c2cc1OCC	2.21
CC1CCCN(c2ccc(/C=C(\C#N)c3nn(-c4ccccc4)c(N)c3C#N)cc2[N+](=O)[O-])C1 (stereo not given)	0.046
COc1ccc(NC(=O)CCC(=O)c2cccs2)cc1S(=O)(=O)Nc1ccccc1Cl	-0.34
O=C(NCc1ccco1)c1cc2c(s1)CCCCC2	0.555
Cc1cc(C)cc(N(C(=O)C(F)(F)F)C(C(=O)NC2CCCCC2)c2cccs2)c1 (stereo not given)	-0.109
Cc1ccc(NC(=O)C2C(=O)N(CCO)C3(C)CC2c2ccccc2O3)cc1 (stereo not given)	-0.0277
COc1ccc(N2CCN(C(=O)c3ccc(-n4nc(C)cc4C)cc3)CC2)cc1	-0.108
O=C(Nc1nnc(-c2ccc(Cl)s2)o1)C1CCCCC1	1.92
COC(=O)C1=C(C)NC(C)=C(C(=O)OC)C1c1ccc(OC(=O)c2ccco2)cc1	-0.519
O=C(CCC(=O)NNC(=O)Nc1ccc(Cl)cc1)NCc1ccccc1	-0.164
CCOC(=O)c1c(-c2ccc(F)cc2)csc1NC(=O)c1c(-c2ccccc2)noc1C	-0.0698
CC(C(=O)NCc1cccs1)N1C(=O)c2ccccc2C1=O (stereo not given)	0.434
COc1ccccc1N1CCN(c2ncnc3c2oc2ccccc23)CC1	-0.369
